Some of the results follow.
system: PfHDP1 homeodomain (GST-tagged); assay: gcPBM binding intensity (ln(normalized median fluorescence intensity)); higher = stronger DNA binding
Summary of the method: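 Binding intensity values are the highest Masliner-normalised natural-log median intensity among replicate spots of either probe orientation. The binding step lasted 1 h in 1× PBS with 1% milk, 0.2 mg/ml BSA, 0.5% salmon testes DNA and 0.03% Triton X-100, using GST-tagged P. falciparum DNA-binding domains expressed in E. coli on an Agilent 4 × 180k array of primer-extended double-stranded 36-bp intergenic genomic probes plus negative controls. Alexa488 anti-GST antibody and a 488 nm scan detected bound protein.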

Row | Sequence | gcPBM binding intensity (ln)
1 | AAAAAAAGAAAAAAAACACACACAAATATAAATAAA [CACACA_site8309] | 6.66
2 | GAATGAATGATAAATTTTTTTTTCTTTTTTTTTTTG [CACACA_negctrl_site333] | 5.67
3 | TATATATTTGTGAAAATATTAAAATAAATAAATAAA [CACACA_negctrl_site295] | 6.45
4 | AAAATCTAGGTATTTATACACACTAATATAATATAC [CACACA_site8108] | 6.36
5 | TAAAAAAAGAGATATTGTACACAAAAAAATTTTACT [XGTACX_site1342] | 6.59
6 | AAGTTCAAAATAAATGGTACAGAAGTATATATATCA [XGTACX_site174] | 6.45
7 | TAGAAAAAAAAATACATACACACAATATATTTATTT [CACACA_site3123] | 6.21
8 | CCATATATAATGACATGTACTCAAAAAAAAAAAAAA [XGTACX_site685] | 6.37
9 | TAATTCAAACGTGTATGTATATTACTCGAAGAAATA [CACACA_negctrl_site1779] | 6.2
10 | TTTCAAGGATTTAATTTATGGAAACCTTCTTCATTT [GTGCAC_negctrl_site504] | 5.94
11 | TTTTTAAAAAAAAATAGAGAGTCAAAGTATGTGGCG [CACACA_negctrl_site194] | 6.82
12 | TTTCTCTTTTTTTGGGGTACAACCAATCCTATAATA [XGTACX_site297] | 6.81
13 | ATACATATATATATATGTACATATATTTATATTTAT [XGTACX_site3155] | 6.42
14 | AACCCTTTTGATTTTTCTTTTTTTTTTTTTTTAAAT [CACACA_negctrl_site1667] | 6.15
15 | CATATAAGACAAAAGGTGCAATTTTAATGCTTTTAT [GTGCAC_site9432] | 8.29
16 | TAGTAAAATGGAACACGTACATATATCTATGTATAA [XGTACX_site6103] | 6.35
17 | AGAAGGATATTATGAAGTACACATATTGTATATGGT [XGTACX_site7503] | 6.32
18 | ACAGTTTGTCTGAGTAGTACATAAATACTTGAAAGG [XGTACX_site7792] | 6.36
19 | AGGAAAATAATTAAAGCATGCTCATTATGAAATATA [TGCATGCA_site855] | 7.07
20 | AATACATGAACTTAAAGTACTAAAAAAAAAATAATA [XGTACX_site1956] | 6.46
21 | ACAAATAAAAAAATTACACACATATAAAATATAGAT [CACACA_site6756] | 6.37
22 | TATGAGAACAAACATTGTACAATAAAAAGTAGATAT [XGTACX_site920] | 7.47

Row | Sequence | gcPBM binding intensity (ln)
23 | CTCAAATAACTTTTTACACACATTATTTGAAATAAG [CACACA_site6722] | 6.7
24 | CAGAATACATACATTACACACAAATTTAAGTATATA [CACACA_site1781] | 6.36
25 | ATATGAATGATCGTACGTACTTACATATTTATAAAG [XGTACX_site8041] | 6.51
26 | TACCCACTAAAATACACACACACACCCACATATATA [CACACA_site6141] | 7.13
27 | AATTTGAATATTTGATGTACAAAGTTTTTTAATGTT [XGTACX_site3249] | 6.14
28 | TCTTACACTAATAAATGTACATACAAAAAATCTATT [XGTACX_site1379] | 6.37
29 | AAATGTATAATTTTTTAATACACTTATTTAAAATAA [CACACA_negctrl_site797] | 6.17
30 | ATAAATATAACATATTGTACCCTTAAAAAGGAACAA [XGTACX_site352] | 5.92
31 | GTACCAACAGCACTACTTCTCGCCATTTTCTTGTAG [XGTACX_negctrl_site97] | 6.8
32 | GAGAGGATAGTTCACAGTACCCAGTAACTCTACGGA [XGTACX_site4876] | 6.02
33 | TAAGTATATTTCTGCACACAAAAAAAAAAACCAAAA [CACACA_site4056] | 7.92
34 | AAAATTTAATATGAATGTACATAAAAAAAAAAAAAA [XGTACX_site6719] | 6.76
35 | TATATATATATATATGTGCACATTTATTGCCTTTGC | 10.6
36 | TATAAATAAAGACTTTTTTCTAACTTTTTTTTGTAT [CACACA_negctrl_site1015] | 6.23
37 | ATATCTATAATAAACACACAAATAGATATAACATAT [CACACA_site7702] | 6.68
38 | AAAAAAAAATTAAAAACACACATATATATATATATA [CACACA_site1580] | 9.48
39 | AAAAAAAAAAAAACAACACACAATGTTTTATTTTAC [CACACA_site1613] | 6.19
40 | TAAAACAAAATAACATGTACAAAAAAAAAAAAAAAA [XGTACX_site2915] | 6.37
41 | ATGTAATATGTTCATGCATGTAAAATTACATTTAGA [TGCATGCA_site852] | 6.38
42 | CATATAAGAATCTTCTGTACTTATAAGAAAAGACAT [XGTACX_site8135] | 6.37
43 | ATACACAAATGCATACGTACATATATATATATATAT [XGTACX_site3504] | 9.35
44 | AAGGTAAAATATAAGTGTACTTTTTCTTAATCTTCG [XGTACX_site514] | 6.02

Row | Sequence | gcPBM binding intensity (ln)
45 | TAATATTTATATAATTGTACTTTGTTTGTAAATCCA [XGTACX_site7292] | 6.21
46 | GGACGTATTAAAAGGCGTACACTAAATATTTTATGT [XGTACX_site146] | 6.49
47 | AAGATAATTACGCACACACACACACGCCCACAACTA [CACACA_site7255] | 8.48
48 | ATTATAATTTTGTAAAGTACATATTATTATATATTA [XGTACX_site7191] | 6.05
49 | AATGAAACAATACCCAGTAAAAAAAAAAAATAAATA [TGCATGCA_negctrl_site205] | 6.53
50 | ATATTTTTTTTCTTCACACACATGAGTTATAAATAA [CACACA_site7498] | 6.94
51 | TGTAATCTGGAGAAGAGTACACAGTATCTGGTAGCT [XGTACX_site4935] | 5.93
52 | ATATATAATATAATATGTACATATAATCAATCCTGT [XGTACX_site8694] | 6.72
53 | ATTTAGTATTCGAAACGTACACATATATATATATAT [XGTACX_site3910] | 9.37
54 | ATAATACATACATACATACACACATATATATATATT [CACACA_site3576] | 7.1
55 | TATTGTATTTCATATTGTACTAAAAAAAAAAAAAAG [XGTACX_site6694] | 6.24
56 | AAAAAAAAAAAAAAAACACACATACACATATATTTT [CACACA_site7768] | 6.8
57 | TATATTATTTATAGTAGTACATAAAATATAAATATT [XGTACX_site4417] | 6.2
58 | TAAAAAAAAAAAAAAACACACATATAAATATTTATA [CACACA_site6702] | 6.19
59 | AACAAAGTCATACATACATACATATATATATATATA [GTGCAC_negctrl_site632] | 9.26
60 | TCAATAATAAAAAACACACACAAAAAAAAATAATTA [CACACA_site2798] | 6.73
61 | CATGAATCCTAATAATGTACATAAGAATTCATAATG [XGTACX_site1607] | 6.23
62 | ATAAGCATACATATTACACACATATAATATATATAT [CACACA_site2487] | 8.09
63 | TACATATATATATATGAACACACAAAAAGAATATTT [CACACA_site8421] | 6.76
64 | TTTTATGAGAAACACACACACAAAAAAAAAAAAAAA [CACACA_site4129] | 6.28
65 | TCTTACTAATTTATGGGGACTTATCACCTATTCAGT [CACACA_negctrl_site652] | 6.36
66 | AGTGGATAAATTTATTCACACATTTTTTTTTTTTTT [CACACA_site5914] | 6.35

Row | Sequence | gcPBM binding intensity (ln)
67 | ATTTTTTTTTCTTGTACACACTATTTTATAATTTTA [CACACA_site6102] | 7.29
68 | TTAGCTTATCATTACTGTACTTTATTCATATATATG [XGTACX_site8008] | 6.5
69 | TAAACATTCTTATATAGTACCCATATTAAAATATAC [XGTACX_site8014] | 6.21
70 | ACATACATATATTTATGTACATATATATTTATGATT [XGTACX_site6485] | 6.59
71 | AATTTATATTTATGTGCATGTAATAACTGTATATAA [TGCATGCA_site349] | 8.39
72 | AAAAAAAGATTATACACACACATATATAAACATACA [CACACA_site4553] | 6.83
73 | TTTTGGTGTATAGTATTAATATAAAATAATTATATT [CACACA_negctrl_site47] | 6.8
74 | AAATTAAAATAAAATAGTACATATATTTATATTTTT [XGTACX_site1687] | 6.01
75 | ATGAAAAAAAAAAAAAAAAAAAAAAAAAAAAAAATA [CACACA_negctrl_site1083] | 5.72
76 | ATTTTTTTGTATATATATGACTGGGGATATAATCAA [GTGCAC_negctrl_site274] | 6.92
77 | TATTATTTTTCATATGCATGCAAAAATAAAAAAATA [TGCATGCA_site350] | 6.71
78 | TATAAAAAAAAAAAAAAAAAAAAAAATATATATATA [CACACA_negctrl_site817] | 8.92
79 | AAAAAAAAAAAAAATTGTACTTAAATATATATATAT [XGTACX_site7604] | 8.7
80 | AAATATATAAAAGTATGTACATATGAAAAATATATA [XGTACX_site6165] | 7.09
81 | TTATATAACATAACGATGTTTCAAAACATATTGTAT [CACACA_negctrl_site997] | 6.42
82 | TTATAAAGAATTAGGAGTACAAATGCATATATAATA [XGTACX_site6580] | 7.05
83 | TGTGTATAAAAAAAGTGTACACAAAGTAAGACTTTA [XGTACX_site3759] | 7.02
84 | AGCAACTAAAAAGGATACCCCATTAAAAAAAAATTA [XGTACX_negctrl_site489] | 6.21
85 | TACCAAAAAACGGCACGCATATGTATAAGAATATGT [XGTACX_negctrl_site470] | 6.75
86 | TATAAATATTATAATTGTACATATTATAAAAATTTT [XGTACX_site2719] | 6.41
87 | TTTAAAATTTAATTTTGTACATATACCAATTTTATT [XGTACX_site448] | 6.39

Source: the supplement of paper PMC11417369
